Positions count from the first letter of the chain named.
B1: BTE-0089 (bispecific antibody)
chain 1: QVQLVESGGGVVQPGGSLRLSCAASGFTFSSYGMHWVRQAPGKGLEWVAVIWYDGRNKYYADSVKGRFTISRDNSKNTLYLQMNSLRAEDTAVYYCTRDHSGSGSYYIDYWGQGTLVTVSSASTKGPSVFPLAPSSKSTSGGTAALGCLVKDYFPEPVTVSWNSGALTSGVHTFPAVLQSSGLYSLSSVVTVPSSSLGTQTYICNVNHKPSNTKVDKKVEPKSCDKTHTCPPCPAPEAAGGPSVFLFPPKPKDTLMISRTPEVTCVVVDVSHEDPEVKFNWYVDGVEVHNAKTKPREEQYNSTYRVVSVLTVLHQDWLNGKEYKCKVSNKALAAPIEKTISKAKGQPREPQVYTLPPSRDELTKNQVSLSCAVKGFYPSDIAVEWESNGQPENNYKTTPPVLDSDGSFFLVSKLTVDKSRWQQGNVFSCSVMHEALHNHYTQKSLSLSPGK
chain 2: EIAMTQSPATLSVSPGERATLSCRASQSVSSNLAWYQQKPGQAPRLLIYGASTRATGLPARFSGSGSGTEFTLTISSLQSEDFAVYYCQQYNNFWTFGQGTKVEIKRTVAAPSVFIFPPSDEQLKSGTASVVCLLNNFYPREAKVQWKVDNALQSGNSQESVTEQDSKDSTYSLSSTLTLSKADYEKHKVYACEVTHQGLSSPVTKSFNRGEC
chain 3: EVQLVESGGGLIQPGGSLRLSCAASGFTFNTYAMNWVRQAPGKGLEWVARIRSKYNNYATYYADSVKDRFTISRDDSKSTLYLQMNNLRAEDTAVYYCVRHGNFGNEYVSWFAYWGQGTLVTVSSGKPGSGKPGSGKPGSGKPGSQAVVTQEPSLTVSPGGTVTLTCRSSTGAVTTSNYANWVQQKPGQAPRGLIGGTNKRAPGVPARFSGSLLGDKAALTLSGAQPEDEAEYYCALWYSNLWVFGGGTKVTVL[human IgG1 Fc with C220S L234A L235A P329A T366W (EU numbers) cut from this listing]
B2: BTE-0088 (bispecific antibody)
chain 1: B1 chain 1
chain 2: B1 chain 2
chain 3: B1 chain 3 with Y61S, E107S
B3: BTE-0086 (bispecific antibody)
chain 1: B1 chain 1
chain 2: B1 chain 2
chain 3: B1 chain 3 with Y55A, E107S
B4: BTE-0087 (bispecific antibody)
chain 1: B1 chain 1
chain 2: B1 chain 2
chain 3: B1 chain 3 with Y61E, E107S
B5: BTE-0034 (bispecific antibody, human IgG1, kappa, L234A L235A, N297G)
heavy: B1 chain 1 with N301G, A333P
light: B1 chain 2
scFv-Fc: EVQLVESGGGLIQPGGSLRLSCAASGFTFNTYAMNWVRQAPGKGLEWVARIRSKYNNYATYYADSVKDRFTISRDDSKSTLYLQMNNLRAEDTAVYYCVRHGNFGNDYVSWFAYWGQGTLVTVSSGKPGSGKPGSGKPGSGKPGSQAVVTQEPSLTVSPGGTVTLTCRSSTGAVTTSNYANWVQQKPGQAPRGLIGGTNKRAPGTPARFSGSLLGDKAALTLSGAQPEDEAEYYCALWYSNLWVFGGGTKVTVL[human IgG1 Fc with C220S L234A L235A N297G T366W (EU numbers) cut from this listing]
notes: variant of BTE-0001
B6: BTE-0025 (bispecific antibody)
chain 1: B1 chain 1 with N301G, A333P
chain 2: B1 chain 2
chain 3: B5 scFv-Fc with Y61S, D107S
B7: BTE-0028 (bispecific antibody)
chain 1: B1 chain 1 with N301G, A333P
chain 2: B1 chain 2
chain 3: B5 scFv-Fc with D76N, D107S
B8: BTE-0011 (bispecific antibody)
chain 1: B1 chain 1 with N301G, A333P
chain 2: B1 chain 2
chain 3: B5 scFv-Fc with N35A, D107S
B9: BTE-0015 (bispecific antibody)
chain 1: B1 chain 1 with N301G, A333P
chain 2: B1 chain 2
chain 3: B5 scFv-Fc with Y55A, D107S
B10: BTE-0012 (bispecific antibody)
chain 1: B1 chain 1 with N301G, A333P
chain 2: B1 chain 2
chain 3: B5 scFv-Fc with N35G, D107S
B11: BTE-0017 (bispecific antibody)
chain 1: B1 chain 1 with N301G, A333P
chain 2: B1 chain 2
chain 3: B5 scFv-Fc with Y55A, N57S, D107S
B12: BTE-0024 (bispecific antibody)
chain 1: B1 chain 1 with N301G, A333P
chain 2: B1 chain 2
chain 3: B5 scFv-Fc with Y61R, D107S
B13: BTE-0020 (bispecific antibody)
chain 1: B1 chain 1 with N301G, A333P
chain 2: B1 chain 2
chain 3: B5 scFv-Fc with Y61D, D107S
B14: BTE-0010 (bispecific antibody)
chain 1: B1 chain 1 with N301G, A333P
chain 2: B1 chain 2
chain 3: B5 scFv-Fc with N35D, D107S
B15: BTE-0029 (bispecific antibody)
chain 1: B1 chain 1 with N301G, A333P
chain 2: B1 chain 2
chain 3: B5 scFv-Fc with D76E, D107S
B16: BTE-0016 (bispecific antibody)
chain 1: B1 chain 1 with N301G, A333P
chain 2: B1 chain 2
chain 3: B5 scFv-Fc with Y55F, D107S
B17: BTE-0021 (bispecific antibody)
chain 1: B1 chain 1 with N301G, A333P
chain 2: B1 chain 2
chain 3: B5 scFv-Fc with Y61I, D107S
B18: BTE-0026 (bispecific antibody)
chain 1: B1 chain 1 with N301G, A333P
chain 2: B1 chain 2
chain 3: B5 scFv-Fc with Y61T, D107S
B19: BTE-0027 (bispecific antibody)
chain 1: B1 chain 1 with N301G, A333P
chain 2: B1 chain 2
chain 3: B5 scFv-Fc with D76T, D107S
B20: BTE-0023 (bispecific antibody)
chain 1: B1 chain 1 with N301G, A333P
chain 2: B1 chain 2
chain 3: B5 scFv-Fc with Y61N, D107S
B21: BTE-0022 (bispecific antibody)
chain 1: B1 chain 1 with N301G, A333P
chain 2: B1 chain 2
chain 3: B5 scFv-Fc with Y61K, D107S
B22: BTE-0019 (bispecific antibody)
chain 1: B1 chain 1 with N301G, A333P
chain 2: B1 chain 2
chain 3: B5 scFv-Fc with Y61E, D107S
B23: BTE-0018 (bispecific antibody)
chain 1: B1 chain 1 with N301G, A333P
chain 2: B1 chain 2
chain 3: B5 scFv-Fc with Y61A, D107S
B24: BTE-0048 (bispecific antibody, human IgG1, kappa, L234A L235A, N297G)
heavy: B1 chain 1 with N301G, A333P
light: B1 chain 2
scFv-Fc: B5 scFv-Fc with D107S, A113D
notes: variant of BTE-0001

Biological target: T1, CD3εδ complex protein (human; alpaca, UniProt P07766 23-126; P04234 22-105)
T1 construct: they are not part of the secreted protein; also called human CD3; CD386 complex protein
Test: ELISA, CD3 complex immobilized
How it was run: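 Bispecific anti-TSPAN8/anti-CD3 antibodies bound to immobilized CD3εδ complex protein in ELISA, detected with HRP anti-human IgG Fc and TMB absorbance. EC50 from a four-parameter variable-slope fit, top fixed at plate maximum and bottom at blank; reference antibody averaged across plates.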

UniProt P07766, sequence (P07766 23-126 limits assumed, stated change not applied, form in doubt, chain 1 of 2): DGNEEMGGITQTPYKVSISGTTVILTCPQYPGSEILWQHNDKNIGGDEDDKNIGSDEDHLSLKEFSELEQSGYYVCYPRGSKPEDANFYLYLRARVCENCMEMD
UniProt P07766, sequence (P04234 22-105 limits assumed, stated change not applied, form in doubt, chain 2 of 2, further chain): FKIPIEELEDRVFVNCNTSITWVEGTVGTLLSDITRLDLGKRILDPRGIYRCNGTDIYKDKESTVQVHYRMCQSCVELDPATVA

Question: How did the EC50 turn out when B1 was run?
Answer: 0.0975 µg/mL

Question: With B2 as the binder, how does the EC50 read?
Answer: 0.0556 µg/mL

Question: With B3 as the binder, how does the EC50 read?
Answer: 0.0379 µg/mL

Question: Which EC50 does the source give for B4 here?
Answer: 1.02 µg/mL

Biological target: T1, CD3εδ complex protein (printed 'CD388 …)
Test: ELISA, CD3 complex immobilized
Remark: another data set of the same source
Method: Binding activities of the anti-TSPAN8/anti-CD3 bispecific antibodies BTE-0001 to BTE-0067 to CD3 were evaluated by the ELISA. ELISA was performed according to a conventional method. The […] complex protein obtained in Example 1-3 was immobilized on a plate. BTE-0001 to BTE-0067 were used as the test antibodies. As a secondary antibody, Goat anti-Human IgG Fc, Multi-Species SP ads-HRP (2014-05, available from SouthernBiotech) was used. TMB+Substrate-Chromogen (S1599, available from Dako) was used as the detection reagent. Infinite M200pro (available from Tecan) was used to measure the absorbance. The EC50 values were calculated using variable slope model (four parameters) in GraphPad Prism with the maximum value in the same plate fixed at the top and the minimum value in the blank in the same plate fixed at the bottom. Since BTE-0001 was always measured in each plate as a control, only the EC50 value of BTE-0001 was expressed as the average value of a plurality of plates.

Question: Which EC50 does the source give for B5 here?
Answer: 0.0471 µg/mL

Question: Which EC50 does the source give for B6 here?
Answer: 0.0494 µg/mL

Question: Which EC50 does the source give for B7 here?
Answer: 0.38 µg/mL

Question: B8 was tested. Which EC50 did it give?
Answer: 0.378 µg/mL

Question: Which EC50 does the source give for B9 here?
Answer: 0.0176 µg/mL

Question: For B10, which EC50 is on record?
Answer: 0.993 µg/mL

Question: Which EC50 does the source give for B11 here?
Answer: 0.03 µg/mL

Question: For B12, which EC50 is on record?
Answer: 0.0412 µg/mL

Question: Which EC50 does the source give for B13 here?
Answer: 1.26 µg/mL

Question: With B14 as the binder, how does the EC50 read?
Answer: 2.04 µg/mL

Question: For B15, which EC50 is on record?
Answer: 0.0802 µg/mL

Question: For B16, which EC50 is on record?
Answer: 0.0042 µg/mL

Question: B17 was tested. Which EC50 did it give?
Answer: 0.0387 µg/mL

Question: With B18 as the binder, how does the EC50 read?
Answer: 0.0459 µg/mL

Question: B19 was tested. Which EC50 did it give?
Answer: 2.95 µg/mL

Question: B20 was tested. Which EC50 did it give?
Answer: 0.208 µg/mL

Question: How did the EC50 turn out when B21 was run?
Answer: 0.0462 µg/mL

Question: How did the EC50 turn out when B22 was run?
Answer: 0.577 µg/mL

Question: With B23 as the binder, how does the EC50 read?
Answer: 0.0613 µg/mL

Question: Which EC50 does the source give for B24 here?
Answer: 0.142 µg/mL

Source: patent US20250304706A1 (Astellas, published 2025)
